The target in test [1] is T1, HA-TAK1 (transforming growth factor β-activated kinase) (UniProt Q62073).
T1 sequence: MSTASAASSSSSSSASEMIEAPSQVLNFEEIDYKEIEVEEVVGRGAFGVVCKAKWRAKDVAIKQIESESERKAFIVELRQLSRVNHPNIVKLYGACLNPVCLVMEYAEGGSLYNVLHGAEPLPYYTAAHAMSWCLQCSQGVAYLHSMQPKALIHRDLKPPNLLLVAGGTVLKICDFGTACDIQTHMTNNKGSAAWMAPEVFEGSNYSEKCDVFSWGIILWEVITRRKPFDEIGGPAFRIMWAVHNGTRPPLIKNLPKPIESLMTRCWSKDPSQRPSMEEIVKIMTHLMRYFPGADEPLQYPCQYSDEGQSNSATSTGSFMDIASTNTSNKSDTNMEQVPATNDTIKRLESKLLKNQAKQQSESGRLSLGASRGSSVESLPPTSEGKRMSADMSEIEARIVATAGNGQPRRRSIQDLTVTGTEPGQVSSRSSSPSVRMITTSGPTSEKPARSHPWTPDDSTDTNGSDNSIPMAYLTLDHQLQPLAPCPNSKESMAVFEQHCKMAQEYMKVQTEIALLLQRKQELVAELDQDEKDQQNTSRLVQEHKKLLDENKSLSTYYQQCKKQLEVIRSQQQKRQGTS
Kind of test: co-IP; supplementary panels (Fig. S7b-d, S8a, S8c-d, S9a-b) whose legends were not shown; cells and tags not stated; with or without TIGAR overexpression.

The chains behind the UniProt entries cited, without tags or fusion partners. Residues count along the entry.
UniProt Q9QUK6, residues 26-835: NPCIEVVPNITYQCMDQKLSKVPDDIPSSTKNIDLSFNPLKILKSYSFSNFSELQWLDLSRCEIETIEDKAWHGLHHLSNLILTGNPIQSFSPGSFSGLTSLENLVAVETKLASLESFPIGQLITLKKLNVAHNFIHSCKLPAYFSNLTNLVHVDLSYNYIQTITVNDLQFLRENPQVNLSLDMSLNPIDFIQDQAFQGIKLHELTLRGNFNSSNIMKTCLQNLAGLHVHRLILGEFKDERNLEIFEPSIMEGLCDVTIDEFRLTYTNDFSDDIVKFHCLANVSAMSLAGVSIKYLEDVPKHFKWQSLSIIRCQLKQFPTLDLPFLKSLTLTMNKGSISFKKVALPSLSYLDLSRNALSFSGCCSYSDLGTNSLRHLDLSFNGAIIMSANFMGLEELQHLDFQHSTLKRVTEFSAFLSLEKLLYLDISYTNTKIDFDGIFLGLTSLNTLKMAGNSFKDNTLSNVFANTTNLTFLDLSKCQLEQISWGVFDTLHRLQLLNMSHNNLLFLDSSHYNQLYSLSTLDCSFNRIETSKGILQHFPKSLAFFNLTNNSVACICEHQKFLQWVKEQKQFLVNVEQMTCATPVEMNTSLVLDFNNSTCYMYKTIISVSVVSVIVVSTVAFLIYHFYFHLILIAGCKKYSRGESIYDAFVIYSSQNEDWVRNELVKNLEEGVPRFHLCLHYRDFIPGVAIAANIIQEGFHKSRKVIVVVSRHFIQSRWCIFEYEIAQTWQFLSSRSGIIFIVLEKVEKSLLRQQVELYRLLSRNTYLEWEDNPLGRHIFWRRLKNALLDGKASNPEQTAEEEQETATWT
UniProt Q62406: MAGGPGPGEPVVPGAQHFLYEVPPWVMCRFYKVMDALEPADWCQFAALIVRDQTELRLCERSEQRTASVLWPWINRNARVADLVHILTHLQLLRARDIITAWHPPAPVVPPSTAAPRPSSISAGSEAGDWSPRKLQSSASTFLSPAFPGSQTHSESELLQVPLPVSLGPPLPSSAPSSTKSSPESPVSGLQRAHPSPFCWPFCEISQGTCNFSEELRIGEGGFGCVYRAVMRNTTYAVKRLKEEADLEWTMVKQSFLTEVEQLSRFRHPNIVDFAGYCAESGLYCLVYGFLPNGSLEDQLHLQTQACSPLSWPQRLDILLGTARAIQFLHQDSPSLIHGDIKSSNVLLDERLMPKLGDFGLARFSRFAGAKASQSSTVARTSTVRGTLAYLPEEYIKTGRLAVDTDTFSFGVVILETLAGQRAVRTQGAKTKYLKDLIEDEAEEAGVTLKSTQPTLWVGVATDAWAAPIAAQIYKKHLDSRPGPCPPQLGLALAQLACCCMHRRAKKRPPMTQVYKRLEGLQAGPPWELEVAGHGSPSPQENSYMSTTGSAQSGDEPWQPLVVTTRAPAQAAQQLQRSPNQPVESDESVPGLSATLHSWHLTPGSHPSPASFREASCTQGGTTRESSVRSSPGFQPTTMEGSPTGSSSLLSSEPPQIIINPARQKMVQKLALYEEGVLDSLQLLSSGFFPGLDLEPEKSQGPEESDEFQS
UniProt P22366: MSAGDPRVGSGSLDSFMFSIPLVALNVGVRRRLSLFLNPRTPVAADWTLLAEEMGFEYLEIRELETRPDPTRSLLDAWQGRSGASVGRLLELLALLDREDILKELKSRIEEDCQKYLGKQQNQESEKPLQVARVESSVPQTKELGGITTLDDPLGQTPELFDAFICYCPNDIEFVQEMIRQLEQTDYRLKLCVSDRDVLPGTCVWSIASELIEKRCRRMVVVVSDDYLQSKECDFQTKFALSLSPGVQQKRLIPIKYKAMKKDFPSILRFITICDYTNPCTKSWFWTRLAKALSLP

Test [2] concerns the target T2, HA-TRAF6 (tumor necrosis factor receptor-associated factor 6) (UniProt P70196).
T2 sequence: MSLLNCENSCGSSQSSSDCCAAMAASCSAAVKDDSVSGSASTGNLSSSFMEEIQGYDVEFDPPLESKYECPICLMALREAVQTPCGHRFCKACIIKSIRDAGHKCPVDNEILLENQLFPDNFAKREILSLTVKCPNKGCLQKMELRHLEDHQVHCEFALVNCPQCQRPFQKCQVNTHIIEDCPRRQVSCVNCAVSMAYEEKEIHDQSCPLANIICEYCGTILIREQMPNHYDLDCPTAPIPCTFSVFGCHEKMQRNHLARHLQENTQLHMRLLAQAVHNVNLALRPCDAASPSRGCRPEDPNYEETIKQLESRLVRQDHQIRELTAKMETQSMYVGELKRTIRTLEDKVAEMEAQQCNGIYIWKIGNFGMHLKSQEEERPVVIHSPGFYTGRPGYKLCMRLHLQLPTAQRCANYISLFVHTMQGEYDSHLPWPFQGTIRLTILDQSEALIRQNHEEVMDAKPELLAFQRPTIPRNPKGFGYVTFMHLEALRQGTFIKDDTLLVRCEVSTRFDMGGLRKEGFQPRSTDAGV
Described as above.

A further test addresses TLR4 (UniProt Q9QUK6). Put plainly: co-IP; HEK293 cells co-transfected with tagged plasmids; lysate incubated with the indicated antibody overnight at 4 °C, protein A/G plus agarose beads, western blot; in some panels a third protein co-expressed, or cells incubated with 5Z-7-OX (0.1, 0.3 or 1 mM, 12 h).
In test [3] the target is T1, HA-TAK1 (transforming growth factor β-activated kinase). The test is described as above.
In test [4] the target is T3, His-TAK1 (transforming growth factor β-activated kinase) (UniProt Q62073).
T3 sequence: T1 sequence
The test is described as above.

Test [5] concerns the target T2, HA-TRAF6 (tumor necrosis factor receptor-associated factor 6). The test is described as above.
The target in test [6] is interleukin 1 receptor-associated kinase 1 (IRAK1) (UniProt Q62406). The description is as above.
The target in test [7] is myeloid differentiation primary response gene 88 (MyD88) (UniProt P22366). The description is as above.
Test [8] concerns the target T4, TGF-β activated kinase 1 binding protein 1 (TAB1) (UniProt Q8CF89).
T4 sequence: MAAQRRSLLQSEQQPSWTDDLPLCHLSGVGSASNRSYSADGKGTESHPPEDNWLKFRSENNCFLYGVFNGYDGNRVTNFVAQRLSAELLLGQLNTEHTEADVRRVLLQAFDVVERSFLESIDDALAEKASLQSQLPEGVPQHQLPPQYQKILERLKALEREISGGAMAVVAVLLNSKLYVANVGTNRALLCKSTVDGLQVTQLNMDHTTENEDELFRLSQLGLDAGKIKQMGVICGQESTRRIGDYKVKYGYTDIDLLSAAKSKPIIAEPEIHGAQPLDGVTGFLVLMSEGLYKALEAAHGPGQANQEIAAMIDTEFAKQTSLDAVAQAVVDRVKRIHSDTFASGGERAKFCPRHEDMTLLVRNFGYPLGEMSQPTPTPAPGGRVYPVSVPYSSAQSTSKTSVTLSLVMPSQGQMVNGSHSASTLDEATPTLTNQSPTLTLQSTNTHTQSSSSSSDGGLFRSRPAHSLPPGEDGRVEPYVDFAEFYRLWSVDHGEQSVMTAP
The test is described as above.

Results are given in words; binding and its absence hold for the method and conditions named. In cells and extracts the contact can be indirect. Some binding calls cover weakened binding; strength is not graded here. Sequences can lack the tags named with a protein.

B1: Flag-TIGAR (TP53-induced glycolysis and apoptosis regulator) (protein, UniProt Q8BZA9 1-269)
chain: MPRFALTVIRHGETRLNKEKIIQGQGVDAPLSETGFRQAAAAGQFLSNVQFTHAFSSDLTRTKQTIHGILEKSRFCKDMAVKYDSRLRERMYGVAEGKPLSELRAMAKAAGEECPMFTPPGGETVEQVKMRGKDFFDFICQLILGKAGQRESVLPGAPGSGLESSLAEVFPVGKHGSLGANPKGGTLGLAASILVVSHGAYMRSLFGYFLSDLRCSLPGARDKLELSSITPNTGISVFIIDCEEARQPSIQCVCMNLQEHLNGVTEKQH
Regarding B1, the binding entry was “binds” in test [1]; “binds” in test [2]; “no binding” in the test with TLR4; “binds” in test [3]; “binds” in test [4]; “binds” in test [5]. For the same molecule, the binding result in [6], in test [7] and in test [8] was “no binding” throughout.

(Values after publication PMC11109194.)
